# Source: the supplement of paper PMC11369174, “Proteome-scale characterisation of motif-based interactome rewiring by disease mutations” (Molecular Systems Biology, 2024)
# The other results are listed elsewhere or left out. This is a noisy data set.
# T1: ZMYND11_coiled-coil-MYND__Q15326_480_602
# T1 chain: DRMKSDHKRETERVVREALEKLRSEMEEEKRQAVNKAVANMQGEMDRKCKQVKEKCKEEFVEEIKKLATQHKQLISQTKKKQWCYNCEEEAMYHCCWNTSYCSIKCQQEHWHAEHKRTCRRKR
# Assays:
# Assay in all cases: mutation enrichment score (mutant vs wild-type peptide binding to bait); baits are purified protein domains named by gene / domain / UniProt id / residues; peptides come from disordered regions of human proteins; higher = mutation enhances binding relative to wild type
# [1] = target: USP7_MATH-TRAF__Q93009_53_206; settings: number of wild-type / mutant comparisons summed (bounds the score): 20; paper call: diminished; wild-type window: …
# [2] = target: WDR5_WD_1234567_P61964_21_334; settings: paper call: no_effect, wild-type window: …
# WWTR1_WW__Q9GZV5_122_160 = settings: number of wild-type / mutant comparisons summed (bounds the score): 6; paper call: no_effect; wild-type window: …
# [3] = target: T1, ZMYND11_coiled-coil-MYND__Q15326_480_602; settings: wild-type window: …
# [4] = number of wild-type / mutant comparisons summed (bounds the score): 6
# [5] = number of wild-type / mutant comparisons summed (bounds the score): 12
# [6] = number of wild-type / mutant comparisons summed (bounds the score): 6, paper call: no_effect
# [7] = number of wild-type / mutant comparisons summed (bounds the score): 12, paper call: no_effect
# Chain of WWTR1_WW__Q9GZV5_122_160 (chain, as listed by the source): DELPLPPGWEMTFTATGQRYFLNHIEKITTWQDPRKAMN
# Chain of USP7_MATH-TRAF__Q93009_53_206 (chain, as listed by the source): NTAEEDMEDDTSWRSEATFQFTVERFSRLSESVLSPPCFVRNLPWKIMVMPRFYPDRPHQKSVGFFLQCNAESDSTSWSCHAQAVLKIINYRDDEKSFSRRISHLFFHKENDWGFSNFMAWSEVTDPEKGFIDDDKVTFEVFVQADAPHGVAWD
binder,measurement,setting,value
CGTCGQPADKASASGSGAQVSGPISSGSSASSVTVTRSYRS [G608S G608S],mutation enrichment score,[1],-5
ELSVVILLESTGLGLLRASIRYFLFLFALPILVAGLALVGV [G562R G562R],mutation enrichment score,[2]; [4],-4
ELSVVILLESTGLGLLRASISYFLFLFALPILVAGLALVGV [G562S G562S],mutation enrichment score,[2]; [4],-3.9
FMWCELSVVILLESTGLGLLCASIGYFLFLFALPILVAGLA [R558C R558C],mutation enrichment score,[2]; [4],-4
FMWCELSVVILLESTGLGLLHASIGYFLFLFALPILVAGLA [R558H R558H],mutation enrichment score,[2]; [4],-4
FMWCELSVVILLESTGLGLLSASIGYFLFLFALPILVAGLA [R558S R558S],mutation enrichment score,[2]; [4],-4
KEDLQELNDRLAVYIDRVRSVETENAGLRLRITESEEVVSR [L52V L52V],mutation enrichment score,[2]; [4],2
SYTSGLETLLNIPIKRTMIQPPSGVILQEAADVHARYIELL [S987P S987P],mutation enrichment score,[2]; [4],-2
SYTSGLETLLNIPIKRTMIQTPSGVILQEAADVHARYIELL [S987T S987T],mutation enrichment score,[2]; [4],-2
DDMFNFETFGNSMICLFQITASAGWDGLLAPILNSKPPDCD [T1722A T1722A],mutation enrichment score,[2]; [4],1
EMEGTVKSKYKASITALEAKVAQLEEQLDNETKERQAACKQ [I1816V I1816V],mutation enrichment score,[2]; [4],-2
QLYIYIRLLGAYLFIISRVQRQNLDSMLHGTGMKSDSDQKK [G23R G23R],mutation enrichment score,[2]; [4],-2
YLGTDIAAGEEVAIKLECVKAKHPQLHIESKIYKMMQGGVG [T44A T44A],mutation enrichment score,[2]; [4],1.9
LLYGWAVIPMMYPASFLFDVLSTAYVALSCANLFIGINSSA [P1788L P1788L],mutation enrichment score,[2]; [4],2
MATRGGAGVAMAVWSLLSARMVTAFLLLF [V9M V9M],mutation enrichment score,[2]; [4],0.67
GHDDGQRPSGGAAAAPRRGAHLRRPRHSHPTRARRCPGGLP [Q85H Q85H],mutation enrichment score,[2]; [4],1
MEATRRRQHLGATGGPGAQLTASFLQ [R6T R6T],mutation enrichment score,[2]; [4],2
MLELTPEEVVQRVRSPPPLCGPLVSMDQAPVECILLMKQCW [R768G R768G],mutation enrichment score,[2]; [5],1
SASHQADIKEARREVEVKLTLLILKPFGNSISRYNGEPEHI [P119L P119L],mutation enrichment score,[2]; [5],2
SQSESSSHPALSQSPMPQERSFMAGTQRNPQMAQYGPQQTG [G778S G778S],mutation enrichment score,[2]; [5],2
FNVTPHHHQHSHIHSHLHLHRQDPLHQGSAGPVHPLVDPLT [Q1440R Q1440R],mutation enrichment score,[2]; [5],-2
LARLQMFNVTPHHHQHSHIHPHLHLHQQDPLHQGSAGPVHP [S1434P S1434P],mutation enrichment score,[2]; [5],0
NRKTQETAVAMHVAANSIQNMPPGYPNMNQGGMMGTGPPYG [R911M R911M],mutation enrichment score,WWTR1_WW__Q9GZV5_122_160,3
ELGSNVSGTQTYPVVTGRDMVSTTLPGYPPHVPPTGQGSYP [A334V A334V],mutation enrichment score,WWTR1_WW__Q9GZV5_122_160,3
LSQIPSDTASPLLILPPPVPTPSPTLRPVETPVVGAPGMGS [N457T N457T],mutation enrichment score,WWTR1_WW__Q9GZV5_122_160,1
KGSRAAMSLQEEAEPTPSPPYPNRESLALALTAAHSRSGSE [S2032Y S2032Y],mutation enrichment score,WWTR1_WW__Q9GZV5_122_160,2
RPIVKPEYFTEFLKAVESKKEPPQIESFYPPLDEPSIGSKN [Q189E Q189E],mutation enrichment score,[3]; [6],2
SPEGTLTVEAPMPKLATQSNKITIPVTFESRAQLGGPEAAK [E178K E178K],mutation enrichment score,[3]; [6],-1
LDARPEVTRNDVAPTLMSVPQYLPRPANPDEIGNFIDENLK [R796Q R796Q],mutation enrichment score,[3]; [6],3
RRQPNISDQQVSALSYSDQIEQPLTNQVMPDIVMLQRRMPQ [Q63E Q63E],mutation enrichment score,[3]; [6],-3
RRQPNISDQQVSALSYSDQIKQPLTNQVMPDIVMLQRRMPQ [Q63K Q63K],mutation enrichment score,[3]; [6],-1.9
VIEDNKSENILENTDSMETDGIIPILEKLAPSEDELTCFSK [E434G E434G],mutation enrichment score,[3]; [6],1
LGKDGRAAVPYPPTVADLQRKFPTPPSLEQHPAFSPVMNYK [M864K M864K],mutation enrichment score,[3]; [6],-2
LGKDGRAAVPYPPTVADLQRLFPTPPSLEQHPAFSPVMNYK [M864L M864L],mutation enrichment score,[3]; [6],-2
RAAVPYPPTVADLQRMFPTPTSLEQHPAFSPVMNYKDGISS [P869T P869T],mutation enrichment score,[3]; [6],-2
DGRAAVPYPPTVADLQRMFPIPPSLEQHPAFSPVMNYKDGI [T867I T867I],mutation enrichment score,[3]; [6],-2
PLHPTPPPASTAAGMPSLQHATPPGMTPPQPAAPTQPSTPV [T872A T872A],mutation enrichment score,[3]; [6],-2
LSAPSAPIFQDVLLQFLDTQPPMLTDPRSESERVEFFNLVL [A578P A578P],mutation enrichment score,[3]; [6],1
LQGFRLEEYLIGQSIGKGCSPAVYEATMPTLPQNLEVTKST [A168P A168P],mutation enrichment score,[3]; [6],3
GEEDAGGREDSILVNGACSDKSSDSPPILEAIRTPEIRGRR [Q30K Q30K],mutation enrichment score,[3]; [6],-3.5
KNASQKRRSLRVHIPDLSSFTMPLLDGDLEGSGKHSSRKVD [A44T A44T],mutation enrichment score,[3]; [6],3
RLPNGVLPNAVLPPSLDHVYVQWRQQEPETPESGQPPGDPS [A1541V A1541V],mutation enrichment score,[3]; [6],3
TQEPFREELAYDRMPTLERGQQDPASYAPDAKPSDLQLSKR [R22Q R22Q],mutation enrichment score,"[3]; number of wild-type / mutant comparisons summed (bounds the score): 12, paper call: enhanced",10
QEAWVQNTSVVENVCFGQELGPPWLERVLEACALQPDVDSF [D718G D718G],mutation enrichment score,[3]; [7],2.1
LRRSLPPGLLRRVSSTWTTTSSATGLPTLEPAPVRRDRSTS [T445S T445S],mutation enrichment score,[3]; [7],1
KDGRAAVPYPPTVADLQRMFLTPPSLEQHPAFSPVMNYKDG [P866L P866L],mutation enrichment score,[3]; [7],-1
SKFFLPIKESATSTNRSQEEPSPSPPLLNPSTPQSTESQPT [L308P L308P],mutation enrichment score,[3]; [7],-1
